Experimental data as given in PubChem BioAssay AID504339 (National Center for Advancing Translational Sciences (NCATS), 2011).
The campaign covered roughly 390,000 compounds. About 17,000 (4.4%) were called active. Inconclusive results, whose numbers are uncertain, are shown with a selection of clear calls. The call rests on the fitted dose curve; in most records, active means well fitted inhibition curve with a large enough effect; inconclusive means small, poorly fitted or top-dose-only effect; inactive means no such curve, though single readings can be large or run the other way. Potencies beside an inconclusive call are fits to weak or partial responses and may not hold up.

Molecular target: Lysine-specific demethylase 4A (Homo sapiens) (UniProt O75164)
Assay: qHTS Assay for Inhibitors of JMJD2A-Tudor Domain; further: nearly all actives have a fitted effect of over 50% in size
Conditions: AlphaScreen JMJD2A-Tudor / H3K4me3 peptide binding; activity change, negative = inhibition: at 114 µM (top of the series)
On the % scale 0 is the no-effect control and ±100 the full control effect; potency means the concentration at half of the fitted maximal effect; tags describe the fitted curve by direction and shape.

UniProt O75164, sequence (O75164 whole entry, looked up, the tested form may be a part): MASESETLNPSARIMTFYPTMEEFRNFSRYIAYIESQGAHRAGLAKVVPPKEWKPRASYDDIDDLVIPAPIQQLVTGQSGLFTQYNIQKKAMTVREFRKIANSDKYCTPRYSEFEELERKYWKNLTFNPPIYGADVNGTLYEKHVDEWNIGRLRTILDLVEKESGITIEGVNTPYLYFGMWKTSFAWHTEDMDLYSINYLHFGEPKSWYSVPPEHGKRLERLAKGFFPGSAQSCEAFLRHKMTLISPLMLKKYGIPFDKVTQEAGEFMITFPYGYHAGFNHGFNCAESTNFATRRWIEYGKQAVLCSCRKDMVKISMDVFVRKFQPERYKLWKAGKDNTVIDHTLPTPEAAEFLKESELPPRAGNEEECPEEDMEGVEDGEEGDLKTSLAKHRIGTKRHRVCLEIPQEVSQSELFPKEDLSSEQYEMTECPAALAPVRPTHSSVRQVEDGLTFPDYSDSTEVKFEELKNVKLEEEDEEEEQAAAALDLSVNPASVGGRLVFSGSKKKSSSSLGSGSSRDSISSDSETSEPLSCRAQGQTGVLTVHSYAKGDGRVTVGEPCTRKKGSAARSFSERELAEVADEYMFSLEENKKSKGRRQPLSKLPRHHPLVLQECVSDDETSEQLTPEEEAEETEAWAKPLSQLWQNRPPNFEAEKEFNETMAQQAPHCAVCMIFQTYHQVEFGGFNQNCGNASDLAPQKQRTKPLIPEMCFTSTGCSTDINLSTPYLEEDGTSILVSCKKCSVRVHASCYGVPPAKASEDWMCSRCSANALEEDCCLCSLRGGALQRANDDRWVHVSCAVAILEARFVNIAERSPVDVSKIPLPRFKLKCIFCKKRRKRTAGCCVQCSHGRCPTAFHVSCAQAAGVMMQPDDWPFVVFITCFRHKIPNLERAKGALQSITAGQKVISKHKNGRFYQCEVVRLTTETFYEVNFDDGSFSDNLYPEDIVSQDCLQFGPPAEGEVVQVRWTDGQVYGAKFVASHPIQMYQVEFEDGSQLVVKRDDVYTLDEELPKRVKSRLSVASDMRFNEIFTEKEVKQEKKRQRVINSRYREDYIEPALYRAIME

Compound	Potency	activity change, negative = inhibition
CCN1CCN(C2=C(NS(=O)(=O)c3ccc(Br)cc3)C(=O)c3ccccc3C2=O)CC1	inconclusive: 44.7 µM [inhibitor, partial curve]	–
CC1CC(C)CN(CC(O)COCCOc2ccc(Br)cc2)C1 (stereo not given)	–	inactive: -10.8%
COc1cccc(CNc2ccc(F)c([N+](=O)[O-])c2)c1O	inconclusive: 56.2 µM [inhibitor, partial curve]	–
COc1ccccc1N1CCN(C(=O)c2sc3nc(-c4ccccc4)cn3c2C)CC1	inconclusive: 44.7 µM [inhibitor, partial curve]	–
Cc1cc(N2CCOCC2)nc2ccc(NC(=S)N3CCN(Cc4ccccc4)CC3)cc12	inconclusive: 56.2 µM [inhibitor, partial curve]	–
CCOc1ccccc1CNC(=O)c1nc(-c2ccc(Cl)cc2)n2c1CCCCC2	inconclusive: 14.1 µM [inhibitor, full curve]	–
CC(Cc1ccccc1)N1C(=O)c2cccc([N+](=O)[O-])c2C1=O (stereo not given)	inconclusive: 8.91 µM [inhibitor, full curve, poor fit]	–
CC(=O)NS(=O)(=O)c1ccc(N=c2ssc3c2-c2cc(C)ccc2NC3(C)C)cc1	inconclusive: 56.2 µM [inhibitor, partial curve]	–
CN1CCN(CCCNC(=O)c2ccc(Cn3c(=S)[nH]c4ccc(Br)cc4c3=O)cc2)CC1	inconclusive: 35.5 µM [inhibitor, partial curve]	–
O=C(CCNC(=O)c1ccccc1Cl)Nc1nc2ccccc2[nH]1	inconclusive: 39.8 µM [inhibitor, single point]	–
CCN(c1ccc(NC(=O)COC(=O)c2cccs2)cc1)C(C)C	active: 44.7 µM	–
CCOc1ccccc1NC(=O)Cn1c(=O)n(Cc2nc(C)no2)c(=O)c2ccccc21	–	inactive: 11.7%
Cc1ccc(C(=O)NCC(c2ccc3c(c2)OCO3)N2CCN(c3ccc(F)cc3)CC2)cc1 (stereo not given)	inconclusive: 22.4 µM [inhibitor, full curve]	–
CCN1CCN(c2cc(C)c3cc(NC(=S)N(C)Cc4ccccc4)ccc3n2)CC1	inconclusive: 63.1 µM [inhibitor, partial curve]	–
CC(=O)C1=NOC(CNc2ncc(C(F)(F)F)cc2Cl)C1 (stereo not given)	–	inactive: 4.17%
Nc1nc(NC(=O)C(Cl)(Cl)Cl)nn1-c1ccccc1	active: 25.1 µM	–
CN1CCN(C(=S)NC(=O)/C=C/c2cccs2)CC1	inconclusive: 25.1 µM [inhibitor, partial curve]	–
Cc1noc2c1C(c1ccc(N(C)C)cc1)C1=C(CC(C)(C)CC1=O)N2 (stereo not given)	inconclusive: 63.1 µM [inhibitor, partial curve, poor fit]	–
O=c1c(Cc2ccc(F)cc2)c(O)ccn1CCc1cnc[nH]1	–	inactive: -19%
CCCOc1ccc(NC(=O)CC2C(=O)N(c3ccccc3)C(=O)N2Cc2ccc(F)cc2)cc1 (stereo not given)	–	inactive: -13.8%
CC[C@]1(C(=O)OC)[C@H]2C(=O)N(C)C(=O)[C@H]2[C@H]2CN=C(SCc3ccc(Cl)cc3)N21	inconclusive: 79.4 µM [inhibitor, partial curve]	–
C=CC[C@H](CC(=O)N(CCO)Cc1ccccc1)C(=O)N[C@H](COC(=O)[C@@H](CC=C)Cc1ccc(F)cc1)Cc1c[nH]c2ccccc12	inconclusive: 20 µM [inhibitor, full curve]	–
CCn1cc(CNCc2cn(-c3ccccc3C)nc2-c2ccc(OC)c(F)c2)cn1	inconclusive: 50.1 µM [inhibitor, partial curve]	–
COC(=O)c1ccc(OCC2c3cc(OC)c(OC)cc3CCN2C(=O)c2ccccc2C)cc1 (stereo not given)	inconclusive: 50.1 µM [inhibitor, partial curve]	–

Compound	Potency	activity change, negative = inhibition
COc1cc(OC)cc(C(=O)N(Cc2ccco2)c2c(N)n(Cc3ccccc3)c(=O)[nH]c2=O)c1	–	inactive: -1.01%
Cc1cccc(N2CCN(C(=O)Cn3ncc4c3-c3cc(C)ccc3OC4)CC2C)c1 (stereo not given)	inconclusive: 70.8 µM [inhibitor, single point]	–
Cc1c(NC(=S)NC(=O)c2ccco2)cccc1-c1nc2ncccc2o1	inconclusive: 35.5 µM [inhibitor, partial curve]	–
COc1cc(/C=C2\SC(c3ccc(C)cc3)=NC2=O)cc(OC)c1O	active: 56.2 µM	–
COc1ccc(-c2n[nH]c(=S)n2Cc2ccccc2)cc1OC	active: 10 µM	–
CCN(CC)CCCNC(=S)N1CCN(c2nc(-c3ccccc3)cs2)CC1	inconclusive: 56.2 µM [inhibitor, partial curve]	–
COc1cc(CNC(=O)c2sc3ncccc3c2-n2cccc2)cc(OC)c1OC	–	inactive: -26.8%
Cc1ccc(-n2c(Cn3c(C)nc4ccccc43)n[nH]c2=S)cc1	active: 8.91 µM	–
CCn1c(C)cc(/C=C2\NC(=O)N(Cc3ccccc3)C2=O)c1C	active: 89.1 µM	–
CC1(C)COC(c2cccc(C3=NC(C)(C)CO3)n2)=N1	active: 20 µM	–
N#Cc1nc(-c2ccc(COc3ccccc3)o2)oc1NCc1cccnc1	inconclusive: 39.8 µM [inhibitor, partial curve]	–
CN(C)CCCNC(=O)C[C@H]1C[C@H](C(=O)N2CCCCC2)[C@@]2(C)c3[nH]c4cc(-c5ccco5)ccc4c3CCN2C1=O	inconclusive: 39.8 µM [inhibitor, partial curve]	–
Cc1cc(C)n2nc(-c3sccc3-n3cccc3)cc2n1	inconclusive: 70.8 µM [inhibitor, partial curve]	–
O=C1COc2ccc(-c3cc(-c4ccc(Cl)cc4)c4c(n3)-c3ccccc3OC4)cc2N1	–	inactive: -4.85%
Cc1noc(C)c1C(=O)OCC(=O)Nc1ccc(N2CCOCC2)cc1	–	inactive: 0%
Cc1cccc(C(=O)Nc2nnc(S(=O)(=O)N(C)Cc3ccc(Cl)cc3)s2)c1	–	inactive: -9.66%
CCCC(=O)NC(NC(=S)Nc1ccc(N=Nc2ccccc2)cc1)C(Cl)(Cl)Cl (stereo not given)	inconclusive: 3.98 µM [inhibitor, full curve, poor fit]	–
C(=N\N1CCN(C2c3ccccc3-c3ccccc32)CC1)/c1cccnc1	active: 56.2 µM	–
CC(=O)Oc1ccc(OC(C)=O)c2c1C1C=CC2CC1	active: 22.4 µM	–
O=C(CN(c1ccc(Cl)cc1)S(=O)(=O)c1ccc(Cl)c([N+](=O)[O-])c1)NCCc1ccc(F)cc1	–	inactive: -8.9%
CN(C)c1ccc(C(=O)C(=O)c2ccccc2)cc1	inconclusive: 44.7 µM [inhibitor, partial curve]	–
Cc1cccc(Nc2nc(-c3ccc(O)cc3O)cs2)n1	inconclusive: 89.1 µM [inhibitor, partial curve]	–
NC(=O)c1ccc(NC(=O)COc2cccc3ccccc23)cc1	–	inactive: 2.13%
Cc1nc2cc(C(=O)NCCC3=CCCCC3)ccc2n1-c1ccc(Br)cc1	–	inactive: -20.8%

Compound	Potency	activity change, negative = inhibition
Cc1ccc(/C=C2\SC(=S)N(CC3CCCO3)C2=O)o1 (stereo not given)	active: 35.5 µM	–
O=C1c2ccc3c4c(ccc(c24)C(=O)N1NC(=O)C(F)(F)F)CC3	inconclusive: 79.4 µM [inhibitor, single point]	–
O=C(Oc1ccccc1)c1cccc2cccnc12	inconclusive: 44.7 µM [inhibitor, partial curve]	–
COc1ccc(CNC(=O)C[C@H]2C[C@H](C(=O)N(C(C)C)C(C)C)[C@@]3(C)c4[nH]c5cc(-c6ccco6)ccc5c4CCN3C2=O)cc1OC	inconclusive: 56.2 µM [inhibitor, partial curve]	–
CC1CCC(CN2CCN=C2N(C)C)CC1 (stereo not given)	inconclusive: 79.4 µM [inhibitor, single point]	–
O=C(Oc1cccc2cccnc12)c1ccco1	–	inactive: -17%
CCN(CC)S(=O)(=O)c1cc(C(=O)OCC(=O)Nc2cccc(Br)c2)ccc1F	–	inactive: -11.2%
COc1cccc(OC)c1C(=O)NCCc1ccccc1	–	inactive: 6.04%
Cc1sc2ncnc(Sc3ccccc3C(=O)Nc3ccc(Br)cc3)c2c1C	inconclusive: 70.8 µM [inhibitor, single point]	–
Cc1ccc(NS(=O)(=O)c2cc(C(=O)Nc3cccc([N+](=O)[O-])c3)ccc2C)cc1	inconclusive: 63.1 µM [inhibitor, partial curve]	–
O=S(=O)(NCc1ccccn1)c1cc(Cl)ccc1Cl	–	inactive: -6.9%
O=C(CC1C(=O)NCCN1Cc1cccc(C(F)(F)F)c1)NCCCOc1cccnc1 (stereo not given)	–	inactive: 2.26%
S=C(Nc1cccc(Cl)c1)Nc1cccc2cnccc12	inconclusive: 50.1 µM [inhibitor, partial curve]	–
Cc1cc(C)n(-c2ccc(C(=O)Nc3ccc(S(=O)(=O)NCc4ccco4)cc3)cc2)n1	inconclusive: 70.8 µM [inhibitor, single point]	–
NC(=O)C1CCN(C(=O)c2ccc3c(=O)n(Cc4cccc(Br)c4)c(=S)[nH]c3c2)CC1	–	inactive: -31.2%
CCc1nc(Nc2ccc(F)c(Cl)c2)c2c3c(sc2n1)CCCC3	–	inactive: 49.5%
O=C(COc1ccccc1[N+](=O)[O-])N/N=C/c1ccccn1	inconclusive: 3.55 µM [inhibitor, full curve, poor fit]	–
O=C(Cn1ncc2c3ccccc3n(Cc3cccc(Cl)c3)c2c1=O)NCCCc1ccccc1	inconclusive: 100 µM [inhibitor, partial curve, poor fit]	–
COc1cc(C(=O)Oc2cccc(/C=N/NC(=O)c3cccnc3)c2)cc(OC)c1OC	inconclusive: 56.2 µM [inhibitor, partial curve]	–
COc1cccc(-c2nnc(SCC(=O)N(C)c3ccccc3)o2)c1	–	inactive: -7.95%
Oc1ccccc1/C=N/c1c(-c2ccco2)nc2ccccn12	inconclusive: 44.7 µM [inhibitor, partial curve]	–
Cc1ccc2c(=O)cc(C(=O)Nc3ccc(S(=O)(=O)N4CCCCC4C)cc3)oc2c1C (stereo not given)	–	inactive: -13.9%
